Drawing on publication PMC6891891, this text covers binding for 3 molecules.

Results are given in words; binding and its absence hold for the method and conditions named. For part of these data: Binding seen in cells or lysates may run through a third protein. Some entries that bind do so weakly or less than the wild type. For part of these data: Where a sequence is shown, tags or fusion partners need not be part of it.

The target in test [1] is T1, Mcm4 subunit of the MCM helicase (S. cerevisiae) (UniProt P30665).
T1 sequence: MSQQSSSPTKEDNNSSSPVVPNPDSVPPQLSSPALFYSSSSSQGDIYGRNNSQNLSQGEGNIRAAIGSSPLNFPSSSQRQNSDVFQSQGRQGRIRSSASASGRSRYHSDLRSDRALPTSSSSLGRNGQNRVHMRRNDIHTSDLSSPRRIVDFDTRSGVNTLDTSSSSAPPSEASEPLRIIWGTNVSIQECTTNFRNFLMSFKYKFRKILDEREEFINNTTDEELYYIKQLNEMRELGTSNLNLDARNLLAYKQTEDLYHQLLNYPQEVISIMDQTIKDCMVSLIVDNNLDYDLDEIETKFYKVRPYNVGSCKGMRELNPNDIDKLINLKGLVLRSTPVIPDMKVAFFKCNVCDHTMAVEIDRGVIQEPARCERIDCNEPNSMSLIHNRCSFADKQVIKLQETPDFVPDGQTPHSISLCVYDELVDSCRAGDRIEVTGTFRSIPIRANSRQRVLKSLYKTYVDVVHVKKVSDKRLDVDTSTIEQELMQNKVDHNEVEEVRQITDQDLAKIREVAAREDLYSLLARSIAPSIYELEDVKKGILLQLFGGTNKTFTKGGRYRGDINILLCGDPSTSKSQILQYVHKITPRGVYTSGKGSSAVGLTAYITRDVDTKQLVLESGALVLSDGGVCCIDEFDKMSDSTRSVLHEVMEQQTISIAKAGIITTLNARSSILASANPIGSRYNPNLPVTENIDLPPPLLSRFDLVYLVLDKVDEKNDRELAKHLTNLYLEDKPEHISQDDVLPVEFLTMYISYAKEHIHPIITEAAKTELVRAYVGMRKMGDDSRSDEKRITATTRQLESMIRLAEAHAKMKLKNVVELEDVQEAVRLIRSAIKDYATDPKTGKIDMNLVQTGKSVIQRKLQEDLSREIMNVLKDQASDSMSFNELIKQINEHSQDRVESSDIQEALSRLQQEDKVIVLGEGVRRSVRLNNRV
Put plainly: co-IP; co-IP of Ulp2 and Mcm4 from native yeast extracts (Figure S1E); antibody and precipitated partner not given.

The target in test [2] is T2, Ulp2-FLAG (endogenous Ulp2 tagged C-terminally with FLAG) (S. cerevisiae) (UniProt P40537).
T2 sequence: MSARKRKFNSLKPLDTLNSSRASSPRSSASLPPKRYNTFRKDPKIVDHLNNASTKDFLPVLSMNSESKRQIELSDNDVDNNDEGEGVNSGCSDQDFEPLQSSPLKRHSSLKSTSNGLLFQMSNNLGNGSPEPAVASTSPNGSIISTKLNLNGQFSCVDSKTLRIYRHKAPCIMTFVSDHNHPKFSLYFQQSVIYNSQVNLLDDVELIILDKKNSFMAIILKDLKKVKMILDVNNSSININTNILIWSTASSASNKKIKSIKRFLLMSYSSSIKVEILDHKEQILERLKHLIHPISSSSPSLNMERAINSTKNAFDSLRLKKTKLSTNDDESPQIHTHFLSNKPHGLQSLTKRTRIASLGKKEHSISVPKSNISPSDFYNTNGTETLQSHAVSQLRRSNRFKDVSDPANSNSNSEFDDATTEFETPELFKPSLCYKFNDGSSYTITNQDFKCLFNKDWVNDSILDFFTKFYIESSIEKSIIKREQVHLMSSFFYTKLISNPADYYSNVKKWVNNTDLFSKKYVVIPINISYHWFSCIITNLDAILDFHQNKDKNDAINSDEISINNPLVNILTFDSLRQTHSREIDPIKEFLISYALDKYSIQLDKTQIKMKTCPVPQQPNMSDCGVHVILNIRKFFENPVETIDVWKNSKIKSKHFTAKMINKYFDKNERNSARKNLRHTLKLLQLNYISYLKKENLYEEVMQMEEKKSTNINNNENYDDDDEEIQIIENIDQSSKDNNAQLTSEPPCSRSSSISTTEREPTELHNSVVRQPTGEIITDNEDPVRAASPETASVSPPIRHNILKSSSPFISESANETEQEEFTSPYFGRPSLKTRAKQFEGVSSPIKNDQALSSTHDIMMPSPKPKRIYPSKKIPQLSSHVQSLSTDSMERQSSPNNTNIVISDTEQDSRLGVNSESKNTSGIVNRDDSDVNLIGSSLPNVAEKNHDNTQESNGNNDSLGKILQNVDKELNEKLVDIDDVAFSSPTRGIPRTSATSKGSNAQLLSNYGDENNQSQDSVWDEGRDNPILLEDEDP
Put plainly: co-IP; IP with anti-FLAG antibody and protein G Sepharose from native yeast extracts (150 mM NaCl, 10% glycerol, 1% NP-40, 50 mM Tris HCl pH 8.0, with inhibitors incl. 20 mM NEM), overnight at 4°C; endogenously tagged Ulp2-FLAG and Dbf4-PK.

The target of test [3] is T3, Dbf4, AD-fusion and BD-fusion for Y2H (S. cerevisiae) (UniProt P32325).
T3 sequence: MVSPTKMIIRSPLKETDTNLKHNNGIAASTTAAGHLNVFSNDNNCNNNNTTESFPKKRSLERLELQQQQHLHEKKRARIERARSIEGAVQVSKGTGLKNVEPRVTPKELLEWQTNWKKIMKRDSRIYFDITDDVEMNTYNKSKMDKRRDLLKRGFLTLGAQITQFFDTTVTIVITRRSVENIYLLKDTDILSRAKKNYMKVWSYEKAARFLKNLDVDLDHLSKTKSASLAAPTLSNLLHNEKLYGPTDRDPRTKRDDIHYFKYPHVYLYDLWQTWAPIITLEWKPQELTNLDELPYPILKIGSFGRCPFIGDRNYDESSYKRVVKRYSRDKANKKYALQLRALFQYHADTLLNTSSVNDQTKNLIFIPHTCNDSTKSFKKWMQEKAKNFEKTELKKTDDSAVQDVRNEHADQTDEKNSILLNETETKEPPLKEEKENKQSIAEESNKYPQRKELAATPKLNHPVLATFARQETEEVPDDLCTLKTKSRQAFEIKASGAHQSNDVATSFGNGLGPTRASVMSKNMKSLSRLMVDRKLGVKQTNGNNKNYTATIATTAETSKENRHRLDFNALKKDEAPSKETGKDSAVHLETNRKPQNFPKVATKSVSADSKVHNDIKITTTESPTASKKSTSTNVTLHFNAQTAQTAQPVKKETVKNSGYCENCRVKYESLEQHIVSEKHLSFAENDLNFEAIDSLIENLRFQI
Put plainly: two-hybrid; directed Y2H: pGAD-C1 (AD) and pGBD-C1 (BD) fusions cotransformed into the Y2HGold strain; HIS3 reporter, 8 mM 3-AT added in Figure 4D.

B1: Ulp2 in the co-immunoprecipitation with Mcm4 (enzyme, UniProt P40537 1-1034)
chain: T2 sequence
For B1, in test [1], the binding entry is recorded as “binds”.

B2: Dbf4-PK (endogenous Dbf4 tagged C-terminally with PK) (protein, UniProt P32325 1-704)
chain: T3 sequence
Consider B2, for which, in test [2], the binding result is listed as “binds”.

B3: N-terminally truncated, catalytically inactive Ulp2 (Ulp2CD-N400), Y2H fusion (domain or fragment, UniProt P40537 401-1034)
chain: KDVSDPANSNSNSEFDDATTEFETPELFKPSLCYKFNDGSSYTITNQDFKCLFNKDWVNDSILDFFTKFYIESSIEKSIIKREQVHLMSSFFYTKLISNPADYYSNVKKWVNNTDLFSKKYVVIPINISYHWFSCIITNLDAILDFHQNKDKNDAINSDEISINNPLVNILTFDSLRQTHSREIDPIKEFLISYALDKYSIQLDKTQIKMKTCPVPQQPNMSDSGVHVILNIRKFFENPVETIDVWKNSKIKSKHFTAKMINKYFDKNERNSARKNLRHTLKLLQLNYISYLKKENLYEEVMQMEEKKSTNINNNENYDDDDEEIQIIENIDQSSKDNNAQLTSEPPCSRSSSISTTEREPTELHNSVVRQPTGEIITDNEDPVRAASPETASVSPPIRHNILKSSSPFISESANETEQEEFTSPYFGRPSLKTRAKQFEGVSSPIKNDQALSSTHDIMMPSPKPKRIYPSKKIPQLSSHVQSLSTDSMERQSSPNNTNIVISDTEQDSRLGVNSESKNTSGIVNRDDSDVNLIGSSLPNVAEKNHDNTQESNGNNDSLGKILQNVDKELNEKLVDIDDVAFSSPTRGIPRTSATSKGSNAQLLSNYGDENNQSQDSVWDEGRDNPILLEDEDP
As for B3, the binding entry in test [3] is “no binding”.
